# Source: paper PMC4336329 (PLoS ONE, 2015)
# Among all 310,000 compounds or so, about 2,200 (0.71%) showed an effect of 50% or more. Effects have a minus sign here. Some of the results follow.
# Biological target: human ether-à-go-go-related gene (hERG) potassium channel (human, UniProt Q12809)
# Assay: primary screen, population patch clamp on CHO cells stably expressing hERG
# human ether-à-go-go-related gene (hERG) potassium channel, sequence (Q12809 whole entry, looked up): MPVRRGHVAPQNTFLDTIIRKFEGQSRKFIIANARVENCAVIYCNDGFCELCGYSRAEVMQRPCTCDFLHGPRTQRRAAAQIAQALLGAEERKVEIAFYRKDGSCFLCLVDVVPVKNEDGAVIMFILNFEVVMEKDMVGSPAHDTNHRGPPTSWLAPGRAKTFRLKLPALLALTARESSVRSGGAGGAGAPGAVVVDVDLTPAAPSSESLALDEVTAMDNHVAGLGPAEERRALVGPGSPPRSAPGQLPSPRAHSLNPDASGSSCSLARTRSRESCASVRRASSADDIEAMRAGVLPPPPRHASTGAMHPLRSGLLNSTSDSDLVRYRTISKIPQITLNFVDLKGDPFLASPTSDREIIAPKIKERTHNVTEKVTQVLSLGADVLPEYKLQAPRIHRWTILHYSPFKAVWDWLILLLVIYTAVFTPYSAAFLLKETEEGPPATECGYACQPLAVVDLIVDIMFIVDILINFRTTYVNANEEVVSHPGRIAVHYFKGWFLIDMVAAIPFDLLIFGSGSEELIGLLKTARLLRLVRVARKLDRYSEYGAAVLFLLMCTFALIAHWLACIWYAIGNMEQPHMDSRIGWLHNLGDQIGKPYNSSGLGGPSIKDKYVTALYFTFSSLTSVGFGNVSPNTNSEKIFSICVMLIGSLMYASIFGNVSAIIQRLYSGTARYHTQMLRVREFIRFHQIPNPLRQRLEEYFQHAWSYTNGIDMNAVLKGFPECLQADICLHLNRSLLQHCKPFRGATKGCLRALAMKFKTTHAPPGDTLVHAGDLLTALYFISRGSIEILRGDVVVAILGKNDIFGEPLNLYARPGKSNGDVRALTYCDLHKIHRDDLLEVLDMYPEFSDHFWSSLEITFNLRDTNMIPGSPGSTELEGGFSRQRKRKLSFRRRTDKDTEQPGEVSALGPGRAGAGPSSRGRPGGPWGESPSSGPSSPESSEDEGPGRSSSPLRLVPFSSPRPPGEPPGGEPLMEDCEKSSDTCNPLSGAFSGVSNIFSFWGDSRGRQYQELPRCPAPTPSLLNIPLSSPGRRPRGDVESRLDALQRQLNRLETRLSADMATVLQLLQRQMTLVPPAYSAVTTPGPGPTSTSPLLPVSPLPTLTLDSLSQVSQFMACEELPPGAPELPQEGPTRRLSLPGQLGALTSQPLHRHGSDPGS
row,SMILES,"hERG current change (%, negative = inhibition) at 1uM"
1,CC(=O)c1ccc(N2CCN(c3ccccc3O)CC2)c([N+](=O)[O-])c1,12.9%
2,Cc1ccc(-c2nc(CSCC(=O)NC3CCN(Cc4ccccc4)CC3)c(C)o2)cc1,-11.1%
3,Cc1nc(SCC(=O)Nn2c(-c3ccccc3)nc3ccccc3c2=O)n[nH]1,7.38%
4,CC(C)Cn1c(=O)c(C(=O)N/N=C/c2cccc(F)c2)c(O)c2ccccc21,10.6%
5,Nc1ncnc2c1ncn2CCN1CCOCC1,6.99%
6,COC(=O)C(C)Oc1cc(C)cc2oc(=O)c3c(c12)CCC3 (centres unmarked),8.2%
7,CCCCOc1ccc(NC(=O)CSc2nnnn2C)cc1,0.973%
8,O=C(Nc1ccc2c(c1)OCCO2)c1ccc(Cl)c(Cl)c1,9.06%
9,O=C(COC(=O)c1ccc(CO)cc1)Nc1ccc(OC(F)F)cc1,5.31%
10,CCC(C(=O)Nc1ccon1)c1ccccc1 (centres unmarked),9.61%
11,Cc1ccccc1-n1nc(-c2cccnc2)cc1C(=O)N/N=C/c1ccncc1,-22.3%
12,CCn1c(SCC(=O)N2CCCc3ccccc32)nc2cccnc21,13.5%
13,CCOC(=O)c1c(NC(=O)COC(=O)c2ccc(O)cc2)sc(C(=O)NC)c1C,2.5%
14,CCN(c1ccc(OC)cc1)S(=O)(=O)c1ccc2c(c1)NC(=O)CS2,13.6%
15,C[C@H](O)c1[nH]c2cc(F)ccc2c1[C@H](C)O,14.2%
16,COc1cccc(C2Nc3ccccc3NC3=C2C(=O)CC(C)(C)C3)c1 (centres unmarked),6.32%
17,Cc1cc(NC(=O)CSc2nc3c(cc2C#N)CCCCC3)no1,0.175%
18,CN(Cc1ccccc1)S(=O)(=O)c1ccc(N2CCCC2=O)cc1,2.79%
19,CCOc1cc(/C=C2\N=C(SC)SC2=O)cc([N+](=O)[O-])c1OC(C)=O,1.05%

row,SMILES,"hERG current change (%, negative = inhibition) at 1uM"
1,COc1ccc(-n2ncc3c2CC(C)(C)CC3NC(=O)c2cnc(C)cn2)cc1 (centres unmarked),6.85%
2,Cc1ccc(S(=O)(=O)CCC(=O)OCC(=O)N(C)C2CCS(=O)(=O)C2)cc1 (centres unmarked),13.9%
3,Cc1ccc(OCc2nc(-c3ccc(Cl)cc3)n[nH]2)cc1.Cl,-0.627%
4,O=c1oc2ccccc2c(O)c1/C=N/c1ncccn1,8.99%
5,CC(C(=O)O)c1n[nH]c(=O)c2ccccc12 (centres unmarked),7.37%
6,CN1CCN(c2ccccc2NC(=O)c2ccc3c(c2)OCCO3)CC1,7.42%
7,O=[N+]([O-])c1ccc(N/N=C\c2cccn2-c2ccccc2)nc1,11.4%
8,CC[C@@]12C(=O)N(c3ccccc3)C(=O)N1[C@H](c1ccc(OC)cc1)[C@@H]1C(=O)N(C(C)(C)C)C(=O)[C@@H]12,20.2%
9,O=C(OCN1C(=O)c2ccccc2C1=O)/C(=C\c1ccco1)NC(=O)c1ccccc1,0.0037%
10,Cc1c(Cl)c(C(F)(F)F)nn1CC(=O)NN,2.15%
11,Cc1ccc(NC(=O)CCn2c(=O)[nH]c3ccsc3c2=O)cc1C,9.65%
12,Cl.NCCc1c[nH]c2ccc(O)cc12,6.92%
13,O=c1[nH]c2ccccc2nc1C(F)(F)C(F)F,9.59%
14,CCN(CC)CCNC(=O)C(=O)NCC1OCCN1S(=O)(=O)c1ccc([N+](=O)[O-])cc1 (centres unmarked),11.8%
15,NC(=O)CS(=O)(=O)c1nc2ccccc2n1Cc1ccccc1F,19%
16,Cc1ccc(N2CCN(CC(O)COc3ccc([N+](=O)[O-])cc3)CC2)cc1 (centres unmarked),-65.4%
17,CCN(c1ccccc1)S(=O)(=O)c1ccc(Cl)c(C(=O)N(CC2CCCO2)C2CCS(=O)(=O)C2)c1 (centres unmarked),8.25%
18,COc1cc(C(=O)COC(=O)c2cnc(C)cn2)ccc1OC(F)F,15.4%
19,CCCCn1c(N)c(N(CCOC)C(=O)c2oc3ccc(OC)cc3c2C)c(=O)[nH]c1=O,7.08%

row,SMILES,"hERG current change (%, negative = inhibition) at 1uM"
1,O=C(c1ccc(F)cc1)N1CCC(C(=O)N2CCN(S(=O)(=O)c3cccc(F)c3)CC2)CC1,7.06%
2,CN1C(=O)[C@H]2[C@@H](C3CC3)N3C(=O)CN(Cc4ccccn4)C(=O)[C@@]3(Cc3ccccc3)[C@H]2C1=O,7.58%
3,NC(=O)CC(NC(=O)c1cccc(Br)c1)c1ccc(NC2CCCCCCC2)c([N+](=O)[O-])c1 (centres unmarked),7.23%
4,COc1cc(/C=N/NC(=O)c2cccnc2)ccc1OC(=O)c1cccc(Br)c1,-1.37%
5,CC1(C)CC(=O)c2sc(NC(=O)c3cccs3)nc2C1,5.62%
6,O=C(O)CC(=O)NC12CC3CC(CC(C3)C1)C2,9.11%
7,Cc1ccc(NC(=O)CN(C)Cc2cccs2)cc1Cl,10.8%
8,Cc1nn(Cc2ccccc2Cl)c(C)c1C(=O)Nc1nnc(C2CC2)s1,3.25%
9,CC(=O)N=c1cccc(NC(C)=O)n1O,6.98%
10,NS(=O)(=O)c1ccc(NC(=S)NCc2ccc(F)cc2)cc1,-6.67%
11,CCCCN1C(=O)CC(C(=O)O)C1c1ccc(OC)cc1 (centres unmarked),3.01%
12,COC(=O)c1ccc(C)c(-n2c(=O)n(Cc3ccccc3)c(=O)c3[nH]cnc32)c1,14.7%
13,C#CCOc1ccc(Cl)cc1/C=C1/C(=O)ON=C1C,12.9%
14,CCOC(=O)COc1nc2ccc(Br)cc2c(-c2ccccc2)c1C(C)=O,6.63%
15,Cc1ccc2sc(C)[n+](CCO)c2c1.[I-],20.4%
16,C=CCn1c(COc2ccc(Cl)cc2)nnc1SCc1ccc(C#N)cc1,-29.8%
17,CCCN(CCO)Cc1cccc(Oc2ccccc2)c1,-1.16%
18,COc1ccccc1-c1c(C)nn2c(C)c(C(C)=O)cnc12,7.12%
